This is an account of results in PMC4207660, “Identification and Characterization of Hundreds of Potent and Selective Inhibitors of Trypanosoma brucei Growth from a Kinase-Targeted Library Screening Campaign” (PLoS Neglected Tropical Diseases, 2014).

Where two headings read alike, the source gives them in different places.

Series [1] concerns T. brucei brucei parasites (Lister 427 strain). Put plainly: Dose response growth inhibition assay (resazurin, 72 h). The format is cell-based. The conditions noted are these: Trypanosoma brucei; T. b. brucei growth inhibition; read-out: Tbb pEC50 (converted). Here is the method:
Greiner sterile black clear bottom 384-well assay plates were pre-dispensing with 200 nL of compound in each well, from master plates at 1 mM (100% DMSO) containing selection from the GSK compound collection. Controls of 0% response (control 1, 200 nL of 100%DMSO) and 100% response (control 2, 200 nL of 1 mM pentamidine) were included in each assay plate in columns 6 and 18, respectively. Plates containing 200 nL of 100% DMSO were included randomly in the assay, to assess quality through all process. […] After this period, 10 µL of 200 µM resazurin solution in prewarmed HMI-9 were added to each well, and plates were allowed to incubate 2 hours more prior fluorescence reading in a Wallac EnVision Multilabel Plate Reader (Perkin-Elmer). Raw fluorescent data from the Envision plate reader were uploaded into GSK HTS database (ActivityBase). Activity of each well was normalized as a percentage of inhibition per-plate basis using the following equation: [drawing 1]
For dose-response experiments, serial compound dilutions of selected hits from the primary campaign were plotted against compound concentration. Dose response master plates were prepared by 3-fold dilutions (starting with 10 mM DMSO stock solutions), providing 11 concentrations. From these master plates, 200 nL per well was stamped in final assay plates, including the same controls describe in the primary single shot assay. […]
(Alamar Blue is a resazurin reagent that responds to reducing activity.)

The nature of series [2]: CLND kinetic solubility assay. The conditions noted are these: phosphate buffered saline, pH 7.4, aqueous buffer, kinetic from dmso stock; Measured; read-out: Aq Sol. The format is physicochemical. The protocol: 5 µL of 10 mM DMSO stock solution was diluted to 100 µL with pH 7.4 phosphate buffered saline, equilibrated for 1 hour at room temperature, filtered through Millipore MultiscreenHTS-PCF filter plates (MSSL BPC). The filtrate was quantified by suitably calibrated flow injection Chemi-Luminescent Nitrogen Detection.

For series [3], the target named is T1, Human Serum Albumin (HSA) (Homo sapiens, UniProt P02768).
T1 construct: purchased Chiral Technologies, France
Put plainly: Protein binding assay (HPLC stationary phase), HSA. The format is in vitro ADME. The conditions noted are these: Measured. The protocol:
Chemically bonded Human Serum Albumin (HSA) and Alpha-1-acidglycoprotein HPLC stationary phases (Chiral Technologies, France) were used for measuring compounds' binding to plasma proteins, applying linear gradient elution up to 30% iso-propanol. The run time was 6 min, including the re-equilibration of the stationary phases with the 50 mM pH7.4 ammonium acetate buffer. The obtained gradient retention times were standardised using a calibration set of mixtures as described in the references. The average standard error of the assay depends on the binding strength and kinetics of the compounds.

For series [4], the target named is Cytochrome P450 (CYP450) (Homo sapiens, UniProt P08684). In words: Cytochrome P450 inhibition profile. The format is in vitro ADME. The settings on record: Measured. The protocol: The P450 inhibition profile of the inhibitors was determined as previously described.

Regarding `COc1cc(Nc2ncc3c(C)nc(-c4ccco4)n3n2)cc(OC)c1OC` [NEU-0001195], the EC50 in series [1] is 50.1 nM.
On to `Cc1occc1-c1ncc(O[C@H](CN)c2ccccc2)cc1-c1c[nH]c2ncccc12` [NEU-0001210], for which the EC50 in series [1] was 63.1 nM. Also, in series [2], the solubility kinetic at 1 h was ≥ 326 µM. This molecule also registered an HSA % binding in series [3] of 98.24%. For the same molecule, the IC50 in series [4] (CYP3A4, VG substrate, read-out: CYP3A4VG pXC50 (converted)) is 31.6 nM; in series [4] (CYP3A4, VR substrate, read-out: CYP3A4VR pXC50 (converted)) it was 6.31 nM.
